Among all 310,000 compounds or so, about 2,200 (0.71%) showed an effect of 50% or more. The effect is printed as a negative number. The list shows a part of the results.

In the assay the target is human ether-à-go-go-related gene (hERG) potassium channel (human, UniProt Q12809). Kind of assay: primary screen, population patch clamp on CHO cells stably expressing hERG.
Chain of human ether-à-go-go-related gene (hERG) potassium channel (Q12809 whole entry, looked up): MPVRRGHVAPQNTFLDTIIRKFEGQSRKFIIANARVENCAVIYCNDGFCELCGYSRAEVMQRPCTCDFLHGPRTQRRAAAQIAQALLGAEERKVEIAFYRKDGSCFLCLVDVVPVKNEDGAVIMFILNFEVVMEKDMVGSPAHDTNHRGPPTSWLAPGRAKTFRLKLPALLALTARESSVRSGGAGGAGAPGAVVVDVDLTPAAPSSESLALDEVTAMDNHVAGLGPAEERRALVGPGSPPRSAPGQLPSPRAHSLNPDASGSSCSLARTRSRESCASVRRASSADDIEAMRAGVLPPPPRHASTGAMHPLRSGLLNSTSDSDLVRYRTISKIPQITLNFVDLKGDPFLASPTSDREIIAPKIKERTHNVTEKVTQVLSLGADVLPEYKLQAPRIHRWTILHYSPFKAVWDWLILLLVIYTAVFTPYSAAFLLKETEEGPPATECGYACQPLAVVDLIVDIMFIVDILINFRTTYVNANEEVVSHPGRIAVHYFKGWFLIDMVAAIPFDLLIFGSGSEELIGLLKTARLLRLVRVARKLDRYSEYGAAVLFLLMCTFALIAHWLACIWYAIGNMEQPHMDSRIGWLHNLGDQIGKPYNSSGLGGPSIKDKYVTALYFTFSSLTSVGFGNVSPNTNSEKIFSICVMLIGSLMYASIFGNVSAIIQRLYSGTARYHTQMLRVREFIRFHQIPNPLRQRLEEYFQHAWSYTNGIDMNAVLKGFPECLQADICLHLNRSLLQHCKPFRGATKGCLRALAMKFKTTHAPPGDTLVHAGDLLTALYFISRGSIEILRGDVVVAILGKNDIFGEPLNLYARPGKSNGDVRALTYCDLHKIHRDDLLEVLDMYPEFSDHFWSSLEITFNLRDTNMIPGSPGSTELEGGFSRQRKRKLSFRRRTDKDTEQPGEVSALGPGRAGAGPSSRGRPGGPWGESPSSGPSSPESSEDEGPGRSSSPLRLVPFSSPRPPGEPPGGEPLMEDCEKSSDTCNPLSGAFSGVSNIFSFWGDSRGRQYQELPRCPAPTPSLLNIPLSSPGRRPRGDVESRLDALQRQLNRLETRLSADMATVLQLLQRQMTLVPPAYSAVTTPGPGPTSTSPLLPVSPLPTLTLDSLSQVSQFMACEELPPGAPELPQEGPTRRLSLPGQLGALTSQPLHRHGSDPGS
As to `COc1ccccc1S(=O)Cc1ccc(C(=O)O)o1` (centres unmarked), the “hERG current change (%, negative = inhibition) at 1uM” value is -1.75%.

`C=CCn1c(SCc2ccc(C#N)cc2)nnc1-c1cccc(OC)c1`: the “hERG current change (%, negative = inhibition) at 1uM” value is -45.5%.

With `CCOc1cccc(CN2CCCC(C(=O)Nc3cccc(-n4cccn4)c3)C2)c1` (centres unmarked), the “hERG current change (%, negative = inhibition) at 1uM” value stood at 2.24%.

Consider `COC(=O)c1ccccc1NC(=O)CSc1ncn[nH]1`, for which the “hERG current change (%, negative = inhibition) at 1uM” value worked out at 11.3%.

In the case of `CCOC(=O)CSc1nnc(NC(=O)NC(C)C)s1`, the “hERG current change (%, negative = inhibition) at 1uM” value turned out to be 5.58%.

Consider `CCC(=O)Nc1ccc(C(=O)NNC(=O)Cc2ccccc2)cc1`, for which the “hERG current change (%, negative = inhibition) at 1uM” value was -1.16%.

As to `Cc1ccc(/C=N\NC(=O)/C(=C\Nc2nccc(C)n2)NC(=O)c2ccccc2)cc1`, the “hERG current change (%, negative = inhibition) at 1uM” value is on record as 3.8%.

For `O/N=C1\CCCc2oc3c(c21)CCCC3`, the “hERG current change (%, negative = inhibition) at 1uM” value turned out to be 7%.

For the compound `COc1ccc2cnn(Cc3ccccc3)c(=O)c2c1OC`, the “hERG current change (%, negative = inhibition) at 1uM” value was determined as 4.1%.

`O=C(NNc1c(Cl)cccc1Cl)c1cccs1`: the “hERG current change (%, negative = inhibition) at 1uM” value amounted to 4.53%.

`CCS(=O)(=O)Nc1cccc(C2=NN(C(=O)c3ccco3)C(c3ccco3)C2)c1` (centres unmarked): the “hERG current change (%, negative = inhibition) at 1uM” value stood at 10.5%.

On to `Cc1c(C)n(-c2ccccc2)c2ncnc(NCCN(C)C)c12`, for which the “hERG current change (%, negative = inhibition) at 1uM” value came to 9.82%.

As for `Cc1ccc(-c2ccc(/C=N/O)o2)cc1[N+](=O)[O-]`, the “hERG current change (%, negative = inhibition) at 1uM” value was 6.04%.

For the compound `COC(=O)C(NNc1ccccc1)(NC(=O)c1cccc(F)c1)C(F)(F)F` (centres unmarked), the “hERG current change (%, negative = inhibition) at 1uM” value is given as 13.2%.

Turning to `CC(=O)NC(=S)Nc1ccccc1N1CCCCC1`, the “hERG current change (%, negative = inhibition) at 1uM” value is on record as -6.16%.

On to `Cc1ccc(N=Nc2c(C)[nH]n(-c3ccccc3)c2=O)cc1`, for which the “hERG current change (%, negative = inhibition) at 1uM” value turned out to be 2.6%.

As for `O=C(NCC1COc2ccccc2O1)c1ccco1` (centres unmarked), the “hERG current change (%, negative = inhibition) at 1uM” value was -0.73%.

Regarding `O=C(C1CC1)N1CCc2cc(Br)cc(S(=O)(=O)N3CCOCC3)c21`, the “hERG current change (%, negative = inhibition) at 1uM” value is reported as 5.23%.

`CC(=O)Nc1ccc(S(=O)(=O)NCCC(=O)OCc2nnc(-c3ccccc3)o2)cc1`: the “hERG current change (%, negative = inhibition) at 1uM” value is 3.61%.

As for `Cc1ccc(N)cc1S(=O)(=O)N(C)C`, the “hERG current change (%, negative = inhibition) at 1uM” value is 13.8%.

On to `Cc1nc(C)c(C(=O)OCC(=O)NCc2ccccc2)s1`, for which the “hERG current change (%, negative = inhibition) at 1uM” value turned out to be 7.4%.

With `COc1ccccc1-n1cnnc1SCC(=O)Nc1cccc(S(=O)(=O)N2CCCCC2)c1`, the “hERG current change (%, negative = inhibition) at 1uM” value is reported as 8.63%.

Regarding `CC(=O)Nc1ccc(S(=O)(=O)n2nc(C)cc2C)cc1`, the “hERG current change (%, negative = inhibition) at 1uM” value was determined as 18.9%.

Take `CSc1nc(NCC(C)O)c2c3c(sc2n1)CN(C)CC3` (centres unmarked): the “hERG current change (%, negative = inhibition) at 1uM” value is -0.315%.

Turning to `Cc1ccc(Cn2nnc3c(=O)[nH]c(C4CCN(S(=O)(=O)c5ccc(C)cc5)CC4)nc32)cc1`, the “hERG current change (%, negative = inhibition) at 1uM” value came out at 2.63%.

In the case of `Cn1nc(OC(=O)Nc2cccc(Cl)c2)cc1C(F)(F)F`, the “hERG current change (%, negative = inhibition) at 1uM” value is recorded as 9.41%.

`Cc1ccc(-n2cc(CN(C)Cc3nccn3C)c(-c3cccc(C)c3)n2)cc1`: the “hERG current change (%, negative = inhibition) at 1uM” value amounted to 10.8%.

Take `Cc1ccccc1OCCn1cc(C(=S)N2CCCC2)c2ccccc21`: the “hERG current change (%, negative = inhibition) at 1uM” value stood at 8.23%.

Turning to `O=C(O)CC1(CC(=O)Nc2ccc(F)cc2F)CCCCC1`, the “hERG current change (%, negative = inhibition) at 1uM” value was 8.89%.

Take `Cc1cccc(-c2nc(CS(=O)CC(=O)NCCCSC3CCCCC3)c(C)o2)c1` (centres unmarked): the “hERG current change (%, negative = inhibition) at 1uM” value is 6%.

For `CCC(C)(C)C1CCC2(CC1)NC(=O)N(CC(=O)N(C)Cc1ccc(OC(F)F)cc1)C2=O` (centres unmarked), the “hERG current change (%, negative = inhibition) at 1uM” value came to 6.54%.

`CC(c1ccncc1)C(C)c1ccncc1` (centres unmarked): the “hERG current change (%, negative = inhibition) at 1uM” value turned out to be 11.2%.

Take `Cc1noc(C)c1-c1ccc2ncnc(NC(C)c3ccco3)c2c1` (centres unmarked): the “hERG current change (%, negative = inhibition) at 1uM” value came out at 13.5%.

For `O=C(c1cc(-c2ccc(O)cc2)on1)N1CCCC1`, the “hERG current change (%, negative = inhibition) at 1uM” value was 5.77%.

Regarding `Cc1cc(C(=O)COC(=O)c2n[nH]c(=O)c3ccccc23)c(C)n1C`, the “hERG current change (%, negative = inhibition) at 1uM” value came to 9.86%.

`CC(=O)C(C)Oc1cc(C)cc2oc(=O)c(C)c(C)c12` (centres unmarked): the “hERG current change (%, negative = inhibition) at 1uM” value stood at 12%.

With `CC(=O)Nc1cccc(C(=O)OCC(=O)NC2CCCCCCC2)c1`, the “hERG current change (%, negative = inhibition) at 1uM” value stood at 3.9%.

Take `CC(=O)N1CCN(c2ccc(NC(=O)/C=C/c3ccccc3)cc2)CC1`: the “hERG current change (%, negative = inhibition) at 1uM” value is recorded as 3.08%.

As for `Cc1cc(CNC(=O)CCc2nnc(CCCc3ccccc3)o2)nn1C`, the “hERG current change (%, negative = inhibition) at 1uM” value is listed as 11.5%.

For the compound `CCC1(c2ccccc2)NC(=O)N(CC(=O)Nc2ccc3c(c2)OCO3)C1=O` (centres unmarked), the “hERG current change (%, negative = inhibition) at 1uM” value is 1.81%.

With `COc1ccc(OC)c(S(=O)(=O)N2CCN(C(=O)NC3CCCCC3)CC2)c1`, the “hERG current change (%, negative = inhibition) at 1uM” value was determined as 5.26%.

On to `Cc1ccccc1S(=O)(=O)Cc1ccc(C(=O)NC2CCCC2)o1`, for which the “hERG current change (%, negative = inhibition) at 1uM” value was determined as 4.39%.

For `COc1ccccc1C1C(C(=O)NCc2ccccc2)=C(C)Nc2ncnn21` (centres unmarked), the “hERG current change (%, negative = inhibition) at 1uM” value worked out at 3.78%.

Turning to `O=C(CSc1nnc(-c2ccncc2)n1-c1ccccc1)Nc1ccc(C(=O)O)cc1`, the “hERG current change (%, negative = inhibition) at 1uM” value is given as 10.2%.

The record behind these values is article PMC4336329 (PLoS ONE, 2015).
